Source: the supplement of paper PMC10126150
Sequences with one replicate were seen in a single cluster, so their values are uncertain.

Test system: ATP
Assay: switch fluorescence ratio, 500 uM ATP over buffer (Cy3 cluster intensity, sum of 5 cycles each) (fold (ratio)); higher = stronger signal-on switching upon ATP binding; sequences stand for … in TCGTCGGCAGCGTCAGATGTGTATAAGAGACAGTTTTTTTTTTTTTTTTTTTTTTTTT…TC
Settings: aptamer strand: ATP DNA aptamer (quencher-CACCTGGGGGAGTATTGCGGAGGAAGG + anchor), 100 nM annealed; ATP concentration: 500 uM; one replicate
How it was run: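 Imaging in selection buffer was followed by imaging after 15 min with 500 uM ATP at 22 °C, for Cy3-labelled switching-strand clusters annealed to 100 nM quencher-labelled ATP aptamer on a modified Illumina MiSeq flow-cell. Five of these buffer/ATP cycles ran, separated by NaOH stripping and re-annealing. The fluorescence ratio per cluster is summed target-cycle over summed buffer-cycle Cy3 intensity, averaged per switch-domain sequence; clusters outside 100-1000 RFU were removed.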
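Note: ATP exposure 15 min at 22 °C before imaging.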

CCTCGAGCGG
switch fluorescence ratio: 2.07

CTAGTTTCG
switch fluorescence ratio: 1.01

TGGGCGGCCA
switch fluorescence ratio: 0.951

GTTCTGTGAT
switch fluorescence ratio: 1.03

CGTAGCGAGG
switch fluorescence ratio: 1.44

TGGTGTGCTA
switch fluorescence ratio: 0.948

GCATCTTGGA
switch fluorescence ratio: 0.924

TGGGTATCTG
switch fluorescence ratio: 0.993

CTGCTAACTT
switch fluorescence ratio: 1.1

CGACAATCTA
switch fluorescence ratio: 1.16

TACACTATC
switch fluorescence ratio: 1.07

TCTGAGGTAG
switch fluorescence ratio: 1

AATACCGTCA
switch fluorescence ratio: 1.05

TAGTGCACTG
switch fluorescence ratio: 0.972

CTATGGATCC
switch fluorescence ratio: 1.02

TGACGGCGCG
switch fluorescence ratio: 0.999

TTCTCGCTTA
switch fluorescence ratio: 0.972

CGGAAGAGGG
switch fluorescence ratio: 1.01

TAAGTAGAGC
switch fluorescence ratio: 1.06

CCTGCTTAGG
switch fluorescence ratio: 0.972

CGGATTAAAT
switch fluorescence ratio: 1

TTACGGAGGA
switch fluorescence ratio: 0.983

TCCGGGAGCG
switch fluorescence ratio: 1.28

CTTTGGGGTA
switch fluorescence ratio: 1.03

AAAAACATTC
switch fluorescence ratio: 0.978

GTCCACCTTT
switch fluorescence ratio: 1.03

GCTAGGGCCT
switch fluorescence ratio: 1.01

GAATATTGTT
switch fluorescence ratio: 0.969

GGGAGGAAAT
switch fluorescence ratio: 1.02

AAATAGTAT
switch fluorescence ratio: 0.959

TAAATTCTAT
switch fluorescence ratio: 0.997

CATAGGTGCC
switch fluorescence ratio: 1.13

GAGCGATCTA
switch fluorescence ratio: 0.987

GGGAGTCGAG
switch fluorescence ratio: 1.03

AGGCACACGG
switch fluorescence ratio: 1.07

CGGGTTTATT
switch fluorescence ratio: 0.996

AGATTCTTGT
switch fluorescence ratio: 0.961

GACCGGGGAG
switch fluorescence ratio: 1

TACGAGTGCT
switch fluorescence ratio: 0.982

CACTTAGAGC
switch fluorescence ratio: 1.1

ATTCGTGATA
switch fluorescence ratio: 1.09

CCTGTCCGTC
switch fluorescence ratio: 1.04

GGGCAGCACG
switch fluorescence ratio: 0.997

ACGTCGAGTA
switch fluorescence ratio: 1.03

TGCATGCT
switch fluorescence ratio: 0.985

ACTGCTTAAT
switch fluorescence ratio: 1.06

ATGGGAAGCC
switch fluorescence ratio: 1.02

GTTAGAGGAC
switch fluorescence ratio: 1.03

TGGGCCTTCG
switch fluorescence ratio: 1.24

TGTTGGCGTC
switch fluorescence ratio: 0.943

GGACCAGAGT
switch fluorescence ratio: 1

CGAGAAGCCA
switch fluorescence ratio: 0.957

TTATCCCGTC
switch fluorescence ratio: 1.08

TCTCCAATCG
switch fluorescence ratio: 1.14

ATCAGAGATC
switch fluorescence ratio: 1.07

GGCGTTGTCT
switch fluorescence ratio: 1

TTTGTCTCTT
switch fluorescence ratio: 1

GTGAATTCAG
switch fluorescence ratio: 1.03

ATACCCCAAT
switch fluorescence ratio: 1.08

ACCTGTAAAA
switch fluorescence ratio: 0.952

TGAACACTGC
switch fluorescence ratio: 1.06

GCGTTTAAGG
switch fluorescence ratio: 0.945

GCCCTTAAGG
switch fluorescence ratio: 0.917

CGTTCTTTCC
switch fluorescence ratio: 0.965

TAGTTATCAT
switch fluorescence ratio: 0.998

CCAGGAATTT
switch fluorescence ratio: 1.01

AACAATCGGC
switch fluorescence ratio: 1.04

TGAAATTGCT
switch fluorescence ratio: 1.02

ATTAGACGGG
switch fluorescence ratio: 0.943

ACCTGAGATC
switch fluorescence ratio: 1.04

TTCGAGGCGC
switch fluorescence ratio: 1.11

GAGATTTGAG
switch fluorescence ratio: 1

GTCGATATGT
switch fluorescence ratio: 0.984

ATAGCAGATC
switch fluorescence ratio: 1.13

AACATTGGTA
switch fluorescence ratio: 1.03

CTGTAGAGCT
switch fluorescence ratio: 1.01

GCTTTCCTCA
switch fluorescence ratio: 1.26

ATGGCATGGT
switch fluorescence ratio: 0.998

TTCGAAAAGT
switch fluorescence ratio: 0.973

ACTTGCCAAG
switch fluorescence ratio: 0.943

TCCCGCCCC
switch fluorescence ratio: 1.73

TTTCCCCCCT
switch fluorescence ratio: 1.06

AGATTTTGCT
switch fluorescence ratio: 0.954

CTGGACGTAC
switch fluorescence ratio: 1.75

ATCGGTAGGA
switch fluorescence ratio: 1.02

AGCCTGCAAG
switch fluorescence ratio: 0.976

GGTGGCATGC
switch fluorescence ratio: 0.997

CCTGGGCCAA
switch fluorescence ratio: 2.05

AGCCGCTAAT
switch fluorescence ratio: 1.28

ATGCACCTTC
switch fluorescence ratio: 1.13

ACGGCTAGG
switch fluorescence ratio: 1.02

ACTAATCCAA
switch fluorescence ratio: 1.06

TCGCTGCGGT
switch fluorescence ratio: 1.04

AGTTACCGCA
switch fluorescence ratio: 1.29

CATCAGTCGG
switch fluorescence ratio: 1.04

ACGATGTCAT
switch fluorescence ratio: 1.04

AATGGTGTGC
switch fluorescence ratio: 0.986

GGATGGCCGA
switch fluorescence ratio: 0.988

GATAGGCTCT
switch fluorescence ratio: 0.993

TGGGCGTGCA
switch fluorescence ratio: 1.02

AACGTGTGAA
switch fluorescence ratio: 0.973

TCAATGATCG
switch fluorescence ratio: 0.912

CAGTGGAGAT
switch fluorescence ratio: 1.01

ACCAGTGATA
switch fluorescence ratio: 1

CTAGTACACT
switch fluorescence ratio: 1.07

CCCGCCTAGT
switch fluorescence ratio: 1.17

AGTAGGAGGA
switch fluorescence ratio: 0.987

CATATTGATG
switch fluorescence ratio: 0.963

AAGGGTGGAA
switch fluorescence ratio: 1.03

GAAAATGAG
switch fluorescence ratio: 0.992

GATGACATGT
switch fluorescence ratio: 0.972

CCTTGGGATG
switch fluorescence ratio: 0.991

ATGGGACTGG
switch fluorescence ratio: 0.971

TAGTTGAATG
switch fluorescence ratio: 0.978

CGTGGGGTGC
switch fluorescence ratio: 1.01

CCAATGCGCC
switch fluorescence ratio: 1.58

TTTTGTACTT
switch fluorescence ratio: 1.03

TTCACTGCAC
switch fluorescence ratio: 1.69

TAGGAAAGAG
switch fluorescence ratio: 1.01

AGGTATATAG
switch fluorescence ratio: 0.97

GTTAGGGTGA
switch fluorescence ratio: 1.06

CACAATGGTA
switch fluorescence ratio: 0.995

ACATTGATCT
switch fluorescence ratio: 1.04

GACAGATATT
switch fluorescence ratio: 0.995

TAAGACGTGT
switch fluorescence ratio: 0.936

TTGTGTGG
switch fluorescence ratio: 1.02

CTACCACGAA
switch fluorescence ratio: 1.06

CGGTATCGCC
switch fluorescence ratio: 1

GCTCGCATAG
switch fluorescence ratio: 1.98

ACCAGTGACT
switch fluorescence ratio: 1.13

GGGAAGTATC
switch fluorescence ratio: 1.05

CTGAACTATT
switch fluorescence ratio: 0.985

GTGGTGGGCA
switch fluorescence ratio: 1

ACATTATAGC
switch fluorescence ratio: 1.04

AATCTCTCCG
switch fluorescence ratio: 1.34

TTGATAATGA
switch fluorescence ratio: 0.972

GACATGGGGT
switch fluorescence ratio: 0.969

CTGCTCTTTC
switch fluorescence ratio: 1.08

AAGGCGGACC
switch fluorescence ratio: 1.02

TATGATGAAG
switch fluorescence ratio: 1.02

GGCTCATTAA
switch fluorescence ratio: 0.999

TGCAGATGCG
switch fluorescence ratio: 1.02

AGACACCGGG
switch fluorescence ratio: 0.925

TTATATCTGG
switch fluorescence ratio: 1.05

GGAGAAAGAA
switch fluorescence ratio: 1.03

ATAGCACACG
switch fluorescence ratio: 1.13

CCATAGGCGT
switch fluorescence ratio: 1.02

GCTAAGGATT
switch fluorescence ratio: 0.93

TCGCCTCCCT
switch fluorescence ratio: 1.59

TGTGCATTAT
switch fluorescence ratio: 1.01

GAAATCCTAT
switch fluorescence ratio: 0.964

GGGTCGCACC
switch fluorescence ratio: 1.03

GATGCCACGT
switch fluorescence ratio: 0.986

TCTTATAGAG
switch fluorescence ratio: 0.968

TCGCTGATTA
switch fluorescence ratio: 1.01

ACGTTATCCT
switch fluorescence ratio: 1.18

GAAGAAAGGC
switch fluorescence ratio: 1.19
